Experimental data: the supplement of paper PMC4166925
± gives the standard deviation of the averaged measurements. In all, about 33,000 sequences were measured (“E-score (dimensionless, -0.5 to 0.5)”: median about -0.046, highest 2% from about 0.36 on). This is one part of the list.

test system: T1, SpTbr T-box DNA-binding domain (GST fusion); assay: PBM E-score of 8-mer (E-score (dimensionless, -0.5 to 0.5)); Tbr is Tbrain of the sea star Patiria miniata (Pm) or the sea urchin Strongylocentrotus purpuratus (Sp); higher = stronger binding preference; most listed sequences are background and not binding sites; settings: the construct has about 5 more residues each side
T1 sequence: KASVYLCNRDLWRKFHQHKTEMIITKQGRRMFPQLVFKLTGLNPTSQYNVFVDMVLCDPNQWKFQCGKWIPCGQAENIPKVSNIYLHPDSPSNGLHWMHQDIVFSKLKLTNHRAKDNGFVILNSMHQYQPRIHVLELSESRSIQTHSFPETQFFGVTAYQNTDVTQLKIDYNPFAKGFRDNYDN
In short: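 Primer extension turned Universal Agilent oligonucleotide arrays double-stranded. They were incubated with 200 nM protein in PBS (pH 7.5); the protein was a GST-fused Tbr T-box DNA-binding domain expressed in BL21 E. coli at 20 °C and purified on glutathione. Every ungapped 8-mer was scored from the scanned, quantified probe intensities, and the Universal PBM Analysis Suite gave each an enrichment E-score averaged over duplicate arrays.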

Sequence	PBM E-score of 8-mer
TACCAGTA	-0.361 ± 0.026
GGAAGTAC	-0.323 ± 0.026
GTGCTGAA	0.226 ± 0.037
GTCCCGAC	-0.036 ± 0.024
ACCGACGA	0.121 ± 0.022
CATTAGGA	-0.198 ± 0.02
GGGTGGAA	-0.0683 ± 0.012
GGTCGTAC	-0.127 ± 0.1
TATTAAAA	0.0261 ± 0.042
GAAGACTC	-0.1295 ± 0.00088
ACCGCGGT	0.0296 ± 0.04
CCCTTCCG	0.0125 ± 0.028
ATATATCC	-0.12 ± 0.0036
AGGTAGAT	-0.08012 ± 0.00015
GAGCGGCA	0.0433 ± 0.066
CAAGCCCC	0.0302 ± 0.027
CAGTGACA	0.329 ± 0.0062
ATATAAAT	-0.117 ± 0.023
AACCCAAA	-0.1126 ± 0.001
ACTAGCTG	0.0199 ± 0.043
CCCGCGAC	0.0686 ± 0.01
AGTTAGCG	0.304 ± 0.0085

Sequence	PBM E-score of 8-mer
CACTTAGA	0.176 ± 0.055
GTAACAGA	0.136 ± 0.03
CGTTACAA	-0.0936 ± 0.079
GGACTCAA	-0.166 ± 0.021
ATAACGAG	-0.141 ± 0.013
GGAACGCA	-0.145 ± 0.064
CTCGTAAA	-0.0792 ± 0.064
CATGTTTC	-0.111 ± 0.014
TGATTGAA	0.00549 ± 0.057
AGGCCCGA	-0.0946 ± 0.054
ATTTATCA	-0.0292 ± 0.12
ACGAAAGA	-0.0823 ± 0.0021
ATGACGCG	0.145 ± 0.033
CTCACTTA	0.306 ± 0.033
CGCCCTAG	-0.151 ± 0.0084
AACTGTCC	-0.0916 ± 0.0089
CACGTGGA	0.132 ± 0.0022
TTGAACAA	-0.066 ± 0.026
AAAGTGTA	0.112 ± 0.073
TCGCTTAA	-0.00898 ± 0.0036
AGACCGTA	-0.166 ± 0.1
CCCGGCAG	-0.0933 ± 0.0064

Sequence	PBM E-score of 8-mer
CAAGGATC	-0.0265 ± 0.013
ACTAGATC	-0.264 ± 0.048
ATGCGTGG	0.169 ± 0.069
ACCTAACG	0.11 ± 0.09
ATCCGTGA	0.156 ± 0.016
ATCTAAGG	-0.138 ± 0.047
GACCTCGA	-0.0589 ± 0.014
ACCGAGGT	0.144 ± 0.00077
CGAATAAC	0.107 ± 0.0037
GTGTTCAA	0.152 ± 0.0097
GAGCCAGC	0.0706 ± 0.066
CCTCACCG	-0.111 ± 0.069
CCCCCGAC	-0.00895 ± 0.078
AAAGCGGC	-0.125 ± 0.0093
CTCTCTTA	-0.187 ± 0.034
CGAAGTTA	-0.166 ± 0.024
ACTTTAAA	-0.0537 ± 0.1
AGACGTGG	-0.125 ± 0.039
AGTGCTCA	0.0883 ± 0.015
CAAGCTCA	-0.0177 ± 0.053
AGCGGTGG	-0.058 ± 0.12
CGATTATA	-0.00292 ± 0.028

Sequence	PBM E-score of 8-mer
AAGTCCTC	-0.169 ± 0.0025
AATCCTGT	0.0714 ± 0.014
CTTATGAC	-0.00355 ± 0.022
GAATTCGA	-0.193 ± 0.0066
CGTTATTC	0.0891 ± 0.048
AGCATGTA	0.00605 ± 0.00077
GCTGAGAA	0.26 ± 0.048
GGTATACC	-0.0427 ± 0.062
CACCGAGC	-0.107 ± 0.096
GGGGACCA	-0.267 ± 0.088
AGTGTTCC	0.0182 ± 0.013
CCATGCAC	-0.0815 ± 0.021
ACTTTTCC	-0.0249 ± 0.025
ATAGAGAG	-0.0654 ± 0.037
TGTTGCAA	0.114 ± 0.017
TATGAGCA	-0.1736 ± 0.0016
ACGGTGAC	0.284 ± 0.0089
ATCGACAC	0.389 ± 0.013
CTTCACAA	0.32 ± 0.0058
ACAATGAG	-0.00655 ± 0.0029
